# Results taken from the supplement of paper PMC12217912.
# This is one part of the list. Sequences were assembled here from the parent chain. Values near 0.05 are background.
# B1: TEV protease; numbered along this chain (parent)
# chain: MGESLFKGPRDYNPISSSICHLTNESDGHTTSLYGIGFGPFIITNKHLFRRNNGTLVVQSLHGVFKVKDTTTLQQHLVDGRDMIIIRMPKDFPPFPQKLKFREPQREERICLVTTNFQTKSMSSMVSDTSCTFPSGDGIFWKHWIQTKDGQCGSPLVSTRDGFIVGIHSASNFTNTNNYFTSVPKNFMELLTNQEAQQWVSGWRLNADSVLWGGHKVFMVKPEEPFQPVKEATQL
# Variants of: B1
# Experiment: raw area under fraction-flipped curve 0-4 h after induction (AUC4h, not background-subtracted), DNA-recorder readout of cleavage of the substrate (dimensionless); higher = more cleavage of the substrate by the protease variant
# Conditions: temperature: 34 °C; time window: 0-4 h after rhamnose induction
# Description: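 In vivo DNA recorder in E. coli TOP10(DE3) ΔrhaA at 34 °C. Each TEVp single-site mutant (parent TEVp 0) is paired with a single-site variant of the 7-mer TEVs (canonical ENLYFQ|S). The substrate sits between flexible linkers in a Bxb1-sfGFP-TEVs-SsrA fusion, so cleavage stabilises Bxb1 and speeds flipping of a recombination array, read by NGS. The value is the raw area under the fraction-flipped curve over 0-4 h after rhamnose induction (AUC4h), with ≥20 reads per time point. It is not background-subtracted; inactive controls average about 0.047.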
# 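Further: Bxb1 expression induced with 0.2% (w/v) L-rhamnose at OD600 near 0.5, cultures sampled hourly, flipped fraction per protease–substrate barcode pair counted by paired-end Illumina sequencing.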
Variant,area with substrate ENAYFQS,area with substrate ENCYFQS,area with substrate ENDYFQS,area with substrate ENEYFQS,area with substrate ENFYFQS,area with substrate ENHYFQS,area with substrate ENIYFQS,area with substrate ENKYFQS,area with substrate ENPYFQS,area with substrate ENQYFQS,area with substrate ENSYFQS,area with substrate ENTYFQS,area with substrate ENVYFQS,area with substrate ENWYFQS,area with substrate ENYYFQS,area with substrate ENNYFQS,area with substrate ENRYFQS,area with substrate ENMYFQS,area with substrate ENGYFQS
MGESLFKGPRDYNPISSSICHLTNESDGHTTSLYGIGFGPFIITNKHLFRRNNGTLVVQSLHGVFKVKDTTTLQWHLVDGRDMIIIRMPKDFPPFPQKLKFREPQREERICLVTTNFQTKSMSSMVSDTSCTFPSGDGIFWKHWIQTKDGQCGSPLVSTRDGFIVGIHSASNFTNTNNYFTSVPKNFMELLTNQEAQQWVSGWRLNADSVLWGGHKVFMVKPEEPFQPVKEATQL [Q75W],0.0421,0.0598,0.0524,0.0554,0.0465,0.0574,0.0666,0.0494,0.0596,0.0349,0.0407,0.0653,0.0577,0.0112,0.0552,–,–,–,–
MGESLFKGPRDYNPISSSICHLTNESDGHTTSLYGIGFGPFIITNKHLFRRNNGTLVVQSLHGVFKVKDTTTLQEHLVDGRDMIIIRMPKDFPPFPQKLKFREPQREERICLVTTNFQTKSMSSMVSDTSCTFPSGDGIFWKHWIQTKDGQCGSPLVSTRDGFIVGIHSASNFTNTNNYFTSVPKNFMELLTNQEAQQWVSGWRLNADSVLWGGHKVFMVKPEEPFQPVKEATQL [Q75E],0.0798,0.0589,0.0594,0.0583,0.0719,0.061,–,–,–,–,0.064,–,0.0679,–,–,0.064,0.0635,–,–
MGESLFKGPRDYNPISSSICHLTNESDGHTTSLYGIGFGPFIITNKHLFRRNNGTLVVQSLHGVFKVKDTTTLQAHLVDGRDMIIIRMPKDFPPFPQKLKFREPQREERICLVTTNFQTKSMSSMVSDTSCTFPSGDGIFWKHWIQTKDGQCGSPLVSTRDGFIVGIHSASNFTNTNNYFTSVPKNFMELLTNQEAQQWVSGWRLNADSVLWGGHKVFMVKPEEPFQPVKEATQL [Q75A],0.022,–,0.0506,0.0628,0.0547,–,–,–,0.0572,0.0497,0.0575,0.0695,0.0871,–,–,–,0.0624,0.0874,–
MGESLFKGPRDYNPISSSICHLTNESDGHTTSLYGIGFGPFIITNKHLFRRNNGTLVVQSLHGVFKVKSTTTLQQHLVDGRDMIIIRMPKDFPPFPQKLKFREPQREERICLVTTNFQTKSMSSMVSDTSCTFPSGDGIFWKHWIQTKDGQCGSPLVSTRDGFIVGIHSASNFTNTNNYFTSVPKNFMELLTNQEAQQWVSGWRLNADSVLWGGHKVFMVKPEEPFQPVKEATQL [D69S],0.0694,0.0639,0.0634,0.077,0.0514,0.0538,0.0843,–,0.0503,0.0607,0.0433,0.059,0.0537,0.0639,0.0654,0.0579,0.0463,0.0687,–
MGESLFKGPRDYNPISSSICHLTNESDGHTTSLYGIGFGPFIITNKHLFRRNNGTLVVQSLHGVFKVKDTVTLQQHLVDGRDMIIIRMPKDFPPFPQKLKFREPQREERICLVTTNFQTKSMSSMVSDTSCTFPSGDGIFWKHWIQTKDGQCGSPLVSTRDGFIVGIHSASNFTNTNNYFTSVPKNFMELLTNQEAQQWVSGWRLNADSVLWGGHKVFMVKPEEPFQPVKEATQL [T71V],0.0635,0.0612,0.0483,0.0679,0.062,0.0503,0.0976,0.0525,–,0.0688,0.0648,–,–,0.0147,0.0599,0.0649,0.0594,–,0.0746
MGESLFKGPRDYNPISSSICHLTNESDGHTTSLYGIGFGPFIITNKHLFRRNNGTLVVQSLHGVFDVKDTTTLQQHLVDGRDMIIIRMPKDFPPFPQKLKFREPQREERICLVTTNFQTKSMSSMVSDTSCTFPSGDGIFWKHWIQTKDGQCGSPLVSTRDGFIVGIHSASNFTNTNNYFTSVPKNFMELLTNQEAQQWVSGWRLNADSVLWGGHKVFMVKPEEPFQPVKEATQL [K66D],0.0622,0.0653,0.0592,0.0371,0.0858,0.0633,0.0989,–,0.0558,0.0657,0.054,–,–,–,–,–,–,0.0679,0.0651
MGESLFKGPRDYNPISSSICHLTNESDGHTTSLYGIGFGPFIITNKHLFRRNNGTLVVQSLHGVFMVKDTTTLQQHLVDGRDMIIIRMPKDFPPFPQKLKFREPQREERICLVTTNFQTKSMSSMVSDTSCTFPSGDGIFWKHWIQTKDGQCGSPLVSTRDGFIVGIHSASNFTNTNNYFTSVPKNFMELLTNQEAQQWVSGWRLNADSVLWGGHKVFMVKPEEPFQPVKEATQL [K66M],0.0642,0.0747,0.0541,0.0664,0.0402,–,–,–,0.0441,0.0569,0.0601,0.071,–,0.0179,0.0533,0.0578,–,0.0803,0.0601
MGESLFKGPRDYNPISSSICHLTNESDGHTTSLYGIGFGPFIITNKHLFRRNNGTLVVQSLHGVFKVYDTTTLQQHLVDGRDMIIIRMPKDFPPFPQKLKFREPQREERICLVTTNFQTKSMSSMVSDTSCTFPSGDGIFWKHWIQTKDGQCGSPLVSTRDGFIVGIHSASNFTNTNNYFTSVPKNFMELLTNQEAQQWVSGWRLNADSVLWGGHKVFMVKPEEPFQPVKEATQL [K68Y],0.0622,0.0516,0.0555,0.064,0.06,0.0575,0.107,0.0616,–,0.0508,0.0594,0.0395,0.0716,–,–,–,–,–,0.0781
MGESLFKGPRDYNPISSSICHLTNESDGHTTSLYGIGFGPFIITNKHLFRRNNGTLVVQSLHGVFKVIDTTTLQQHLVDGRDMIIIRMPKDFPPFPQKLKFREPQREERICLVTTNFQTKSMSSMVSDTSCTFPSGDGIFWKHWIQTKDGQCGSPLVSTRDGFIVGIHSASNFTNTNNYFTSVPKNFMELLTNQEAQQWVSGWRLNADSVLWGGHKVFMVKPEEPFQPVKEATQL [K68I],0.0612,0.0694,0.0549,0.0605,0.0551,0.0561,0.0973,–,0.0577,0.0492,0.0627,0.072,0.0805,0.0399,–,0.0449,0.0516,–,0.0477
